# Measured values: the supplement of paper PMC8728848
# Some of the results follow.
# Columns and labels:
# Test in all cases: glycan array binding signal (z-score within array); higher = stronger binding
# Settings in all cases: glycan notation: IUPAC condensed, linker removed
# [1] = target: Gal(b1-4)GlcNAc(b1-2)Man(a1-6)[GlcNAc(b1-2)Man(a1-3)]Man(b1-4)GlcNAc(b1-4)GlcNAc
# How it was run: (§1)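 Glycan array binding is given as a within-array Z-score, which can be read as non-binding when negative. The arrays, 3228 of them, came from the Consortium for Functional Glycomics database and were retained only where the protein sequence was available. Z-scores were averaged across arrays of the same protein sequence at different concentrations or buffers and across linkers.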
# [2] = target: Gal(b1-4)GlcNAc(b1-2)Man(a1-6)[Man(a1-3)]Man(b1-4)GlcNAc(b1-4)GlcNAc
# How it was run: as §1
# [3] = target: Gal(b1-4)GlcNAc(b1-2)[Gal(b1-4)GlcNAc(b1-4)]Man(a1-3)[Gal(b1-4)GlcNAc(b1-2)Man(a1-6)]Man(b1-4)GlcNAc(b1-4)GlcNAc
# How it was run: as §1
# [4] = target: Gal(b1-4)GlcNAc(b1-2)[Gal(b1-4)GlcNAc(b1-4)]Man(a1-3)[Gal(b1-4)GlcNAc(b1-2)[Gal(b1-4)GlcNAc(b1-6)]Man(a1-6)]Man(b1-4)GlcNAc(b1-4)GlcNAc
# How it was run: as §1
# [5] = target: Gal(b1-4)GlcNAc(b1-2)[Gal(b1-4)GlcNAc(b1-4)]Man(a1-3)[GlcNAc(b1-4)][Gal(b1-4)GlcNAc(b1-2)Man(a1-6)]Man(b1-4)GlcNAc(b1-4)GlcNAc
# How it was run: as §1
# [6] = target: Gal(b1-4)GlcNAc(b1-2)[Gal(b1-4)GlcNAc(b1-4)]Man(a1-3)[GlcNAc(b1-4)][Gal(b1-4)GlcNAc(b1-2)[Gal(b1-4)GlcNAc(b1-6)]Man(a1-6)]Man(b1-4)GlcNAc(b1-4)GlcNAc
# How it was run: as §1
# [7] = target: Gal(b1-4)GlcNAc(b1-2)[Gal(b1-4)GlcNAc(b1-4)]Man(a1-3)[GlcNAc(b1-4)][Gal(b1-4)GlcNAc(b1-2)[Gal(b1-4)GlcNAc(b1-6)]Man(a1-6)]Man(b1-4)GlcNAc(b1-4)[Fuc(a1-6)]GlcNAc
# How it was run: as §1
# [8] = target: Gal(b1-4)GlcNAc(b1-2)[Gal(b1-4)GlcNAc(b1-6)]Man(a1-6)[Gal(b1-4)GlcNAc(b1-2)Man(a1-3)]Man(b1-4)GlcNAc(b1-4)GlcNAc
# How it was run: as §1
# [9] = target: Gal(b1-4)GlcNAc(b1-2)[Gal(b1-4)GlcNAc(b1-6)]Man(a1-6)[Gal(b1-4)GlcNAc(b1-2)Man(a1-3)]Man(b1-4)GlcNAc(b1-4)[Fuc(a1-6)]GlcNAc
# How it was run: as §1
# [10] = target: Gal(b1-4)GlcNAc(b1-2)[Gal(b1-4)GlcNAc(b1-6)]Man(a1-6)[GlcNAc(b1-4)][Gal(b1-4)GlcNAc(b1-2)Man(a1-3)]Man(b1-4)GlcNAc(b1-4)GlcNAc
# How it was run: as §1
# [11] = target: Gal(b1-4)GlcNAc(b1-3)Gal(b1-3)GlcNAc
# How it was run: as §1
# [12] = target: Gal(b1-4)GlcNAc(b1-3)Gal(b1-4)Glc
# How it was run: as §1
# [13] = target: Gal(b1-4)GlcNAc(b1-3)Gal(b1-4)GlcNAc
# How it was run: as §1
# [14] = target: Gal(b1-4)GlcNAc(b1-3)Gal(b1-4)GlcNAc(b1-3)Gal(b1-4)GlcNAc
# How it was run: as §1
# [15] = target: Gal(b1-4)GlcNAc(b1-3)Gal(b1-4)[Fuc(a1-3)GlcNAc(b1-6)]Gal(b1-4)Glc
# How it was run: as §1
# [16] = target: Gal(b1-4)GlcNAc(b1-3)Gal(b1-4)[Fuc(a1-3)]GlcNAc(b1-3)Gal(b1-4)[Fuc(a1-3)]GlcNAc
# How it was run: as §1
# [17] = target: Gal(b1-4)GlcNAc(b1-3)GalNAc
# How it was run: as §1
# [18] = target: Gal(b1-4)GlcNAc(b1-3)[Gal(b1-4)GlcNAc(b1-6)]Gal(b1-4)GlcNAc
# How it was run: as §1
# [19] = target: Gal(b1-4)GlcNAc(b1-3)[Gal(b1-4)GlcNAc(b1-6)]GalNAc
# How it was run: as §1
# [20] = target: Gal(b1-4)GlcNAc(b1-3)[GlcNAc(b1-6)]Gal(b1-4)GlcNAc
# How it was run: as §1
# [21] = target: Gal(b1-4)GlcNAc(b1-6)Gal(b1-4)GlcNAc
# How it was run: as §1
# [22] = target: Gal(b1-4)GlcNAc(b1-6)GalNAc
# How it was run: as §1
# [23] = target: Gal(b1-4)GlcNAc(b1-6)[Gal(b1-3)]GalNAc
# How it was run: as §1
# [24] = target: Gal(b1-4)GlcNAc6P
# How it was run: as §1
# [25] = target: Gal(b1-6)Gal
# How it was run: as §1
# [26] = target: Gal3S(b1-3)GalNAc
# How it was run: as §1
# [27] = target: Gal3S(b1-3)GlcNAc
# How it was run: as §1
# [28] = target: Gal3S(b1-3)[Fuc(a1-4)]GlcNAc
# How it was run: as §1
# [29] = target: Gal3S(b1-4)Glc
# How it was run: as §1
# [30] = target: Gal3S(b1-4)Glc6S
# How it was run: as §1
binder,measurement,setting,value
"StcE (Escherichia coli), O82882.2 (protein) ADNNSAIYFNTSQPINDLQGSLAAEVKFAQSQILPAHPKEGDSQPHLTSLRKSLLLVRPVKADDKTPVQVEARDDNNKILGTLTLYPPSSLPDTIYHLDGVPEGGIDFTPHNGTKKIINTVAEVNKLSDASGSSIHSHLTNNALVEIHTANGRWVRDIYLPQGPDLEGKMVRFVSSAGYSSTVFYGDRKVTLSVGNTLLFKYVNGQWFRSGELENNRITYAQHIWSAELPAHWIVPGLNLVIKQGNLSGRLNDIKIGAPGELLLHTIDIGMLTTPRDRFDFAKDKEAHREYFQTIPVSRMIVNNYAPLHLKEVMLPTGELLTDMDPGNGGWHSGTMRQRIGKELVSHGIDNANYGLNSTAGLGENSHPYVVAQLAAHNSRGNYANGIQVHGGSGGGGIVTLDSTLGNEFSHEVGHNYGLGHYVDGFKGSVHRSAENNNSTWGWDGDKKRFIPNFYPSQTNEKSCLNNQCQEPFDGHKFGFDAMAGGSPFSAANRFTMYTPNSSAIIQRFFENKAVFDSRSSTGFSKWNADTQEMEPYEHTIDRAEQITASVNELSESKMAELMAEYAVVKVHMWNGNWTRNIYIPTASADNRGSILTINHEAGYNSYLFINGDEKVVSQGYKKSFVSDGQFWKERDVVDTREARKPEQFGVPVTTLVGYYDPEGTLSSYIYPAMYGAYGFTYSDDSQNLSDNDCQLQVDTKEGQLRFRLANHRANNTVMNKFHINVPTESQPTQATLVCNNKILDTKSLTPAPEGLTYTVNGQALPAKENEGCIVSVNSGKRYCLPVGQRSGYSLPDWIVGQEVYVDSGAKAKVLLSDWDNLSYNRIGEFVGNVNPADMKKVKAWNGQYLDFSKPRSMRVVYK",glycan array binding signal (z-score),[1],-0.062
same,glycan array binding signal (z-score),[2],-0.164
same,glycan array binding signal (z-score),[3],-0.13
same,glycan array binding signal (z-score),[4],-0.15
same,glycan array binding signal (z-score),[5],-0.148
same,glycan array binding signal (z-score),[6],-0.17
same,glycan array binding signal (z-score),[7],-0.115
same,glycan array binding signal (z-score),[8],-0.147
same,glycan array binding signal (z-score),[9],-0.152
same,glycan array binding signal (z-score),[10],-0.169
same,glycan array binding signal (z-score),[11],-0.002
same,glycan array binding signal (z-score),[12],0.034
same,glycan array binding signal (z-score),[13],-0.234
same,glycan array binding signal (z-score),[14],0.169
same,glycan array binding signal (z-score),[15],-0.17
same,glycan array binding signal (z-score),[16],-0.274
same,glycan array binding signal (z-score),[17],-0.269
same,glycan array binding signal (z-score),[18],-0.145
same,glycan array binding signal (z-score),[19],0.448
same,glycan array binding signal (z-score),[20],-0.18
same,glycan array binding signal (z-score),[21],-0.162
same,glycan array binding signal (z-score),[22],0.07
same,glycan array binding signal (z-score),[23],-0.302
same,glycan array binding signal (z-score),[24],-0.154
same,glycan array binding signal (z-score),[25],-0.167
same,glycan array binding signal (z-score),[26],-0.352
same,glycan array binding signal (z-score),[27],-0.214
same,glycan array binding signal (z-score),[28],-0.263
same,glycan array binding signal (z-score),[29],-0.218
same,glycan array binding signal (z-score),[30],0.132
